From patent US10299477B2 (priority 2015, dated 2019)

Assays:
Format in all cases: in vivo
Puccinia recondita = experiment: Test Example E: Brown rust on wheat; conditions: brown rust on wheat, Puccinia recondita; 250 ppm spray
Source text: [Test Example E] Brown Rust on Wheat

[1] = tested on: Blumeria graminis f sp. hordei; experiment: Test Example D: Powdery mildew on barley; conditions: powdery mildew on barley; 250 ppm spray
Source text: [Test Example D] Powdery Mildew on Barley
After the sprayed dilutions were dried, conidia of Blumeria graminis f sp. hordei were inoculated to the plants by shaking off.

Plasmopara viticola = experiment: Test Example G: Downy mildew on vine; conditions: downy mildew on vine, Plasmopara viticola; 250 ppm spray, 7-10 days after inoculation
Source text: [Test Example G] Downy Mildew on Vine
Seeds of a test plant (grape variety: Neomuscat) were planted followed by cultivating until three to four first leaves appeared. […] After the sprayed dilutions were dried, a zoosporangia suspension (1-2×10^4 zoosporangia/ml) of Plasmopara viticola was inoculated to the plants by spraying.

Botrytis cinerea = experiment: Test Example B: Gray mold on tomato; conditions: gray mold on tomato, Botrytis cinerea; 250 ppm spray
Source text: [Test Example B] Gray Mold on Tomato
Seeds of a test plant (tomato variety: Oogata Fukuju) were planted followed by cultivating until three to five first leaves (true leaves) appeared.

Alternaia brassicicola = experiment: Test Example C: Alternaria sooty spot on cabbage; conditions: Alternaria sooty spot on cabbage; 250 ppm spray
Source text: [Test Example C] Alternaria Sooty Spot on Cabbage
Seeds of a test plant (cabbage variety: Shikidori) were planted followed by cultivating until the cotyledons extended.

CCn1c(-c2c(F)cccc2F)c(-c2c(F)cccc2Cl)ccc1=O [Compound 385]
Test E (control value class) (Puccinia recondita): H (H shows more than 50% of control values)
Test D (control value class) [1]: H (H shows more than 50% of control values)
Test G (control value class) (Plasmopara viticola): H (H shows more than 50% of control values)
Test B (control value class) (Botrytis cinerea): H (H shows more than 50% of control values)
Test C (control value class) (Alternaia brassicicola): H (H shows more than 50% of control values)

CCn1c(-c2c(F)cc(OC)cc2F)c(-c2cc(F)ccc2Cl)cc(Cl)c1=O [Compound 386]
Test E (control value class) (Puccinia recondita): H (H shows more than 50% of control values)
Test D (control value class) [1]: H (H shows more than 50% of control values)
Test G (control value class) (Plasmopara viticola): L (L shows 50% or less of control values)
Test B (control value class) (Botrytis cinerea): H (H shows more than 50% of control values)
Test C (control value class) (Alternaia brassicicola): H (H shows more than 50% of control values)

CCn1c(-c2c(F)cccc2F)c(-c2cc(OC)ccc2Cl)cc(S(C)(=O)=O)c1=O [Compound 387]
Test E (control value class) (Puccinia recondita): L (L shows 50% or less of control values)
Test D (control value class) [1]: L (L shows 50% or less of control values)
Test G (control value class) (Plasmopara viticola): L (L shows 50% or less of control values)
Test B (control value class) (Botrytis cinerea): L (L shows 50% or less of control values)
Test C (control value class) (Alternaia brassicicola): L (L shows 50% or less of control values)

O=C1CCC(c2cc(F)ccc2Cl)=C(c2c(F)cccc2F)N1CC(F)F [Compound 388]
Test E (control value class) (Puccinia recondita): L (L shows 50% or less of control values)
Test D (control value class) [1]: H (H shows more than 50% of control values)
Test G (control value class) (Plasmopara viticola): H (H shows more than 50% of control values)
Test B (control value class) (Botrytis cinerea): H (H shows more than 50% of control values)
Test C (control value class) (Alternaia brassicicola): L (L shows 50% or less of control values)

CCCCN1C(=O)CCC(c2cc(OC)ccc2Cl)=C1c1c(F)cccc1F [Compound 390]
Test E (control value class) (Puccinia recondita): L (L shows 50% or less of control values)
Test D (control value class) [1]: H (H shows more than 50% of control values)
Test G (control value class) (Plasmopara viticola): L (L shows 50% or less of control values)
Test B (control value class) (Botrytis cinerea): L (L shows 50% or less of control values)
Test C (control value class) (Alternaia brassicicola): L (L shows 50% or less of control values)

O=c1ccc(-c2cc(F)ccc2Cl)c(-c2c(F)cccc2F)n1CC(F)F [Compound 391]
Test E (control value class) (Puccinia recondita): H (H shows more than 50% of control values)
Test D (control value class) [1]: H (H shows more than 50% of control values)
Test G (control value class) (Plasmopara viticola): L (L shows 50% or less of control values)
Test B (control value class) (Botrytis cinerea): H (H shows more than 50% of control values)
Test C (control value class) (Alternaia brassicicola): H (H shows more than 50% of control values)

O=c1c(Cl)cc(-c2cc(F)ccc2Cl)c(-c2c(F)cccc2F)n1CC(F)F [Compound 392]
Test E (control value class) (Puccinia recondita): H (H shows more than 50% of control values)
Test D (control value class) [1]: H (H shows more than 50% of control values)
Test G (control value class) (Plasmopara viticola): L (L shows 50% or less of control values)
Test B (control value class) (Botrytis cinerea): H (H shows more than 50% of control values)
Test C (control value class) (Alternaia brassicicola): H (H shows more than 50% of control values)

O=c1c(Br)cc(-c2cc(F)ccc2Cl)c(-c2c(F)cccc2F)n1CC(F)F [Compound 393]
Test E (control value class) (Puccinia recondita): H (H shows more than 50% of control values)
Test D (control value class) [1]: H (H shows more than 50% of control values)
Test G (control value class) (Plasmopara viticola): L (L shows 50% or less of control values)
Test B (control value class) (Botrytis cinerea): H (H shows more than 50% of control values)
Test C (control value class) (Alternaia brassicicola): L (L shows 50% or less of control values)

CCCCn1c(-c2c(F)cccc2F)c(-c2cc(OC)ccc2Cl)ccc1=O [Compound 394]
Test E (control value class) (Puccinia recondita): H (H shows more than 50% of control values)
Test D (control value class) [1]: H (H shows more than 50% of control values)
Test G (control value class) (Plasmopara viticola): H (H shows more than 50% of control values)
Test B (control value class) (Botrytis cinerea): L (L shows 50% or less of control values)
Test C (control value class) (Alternaia brassicicola): L (L shows 50% or less of control values)

CCCCn1c(-c2c(F)cccc2F)c(-c2cc(OC)ccc2Cl)cc(Cl)c1=O [Compound 395]
Test E (control value class) (Puccinia recondita): L (L shows 50% or less of control values)
Test D (control value class) [1]: L (L shows 50% or less of control values)
Test G (control value class) (Plasmopara viticola): L (L shows 50% or less of control values)
Test B (control value class) (Botrytis cinerea): L (L shows 50% or less of control values)
Test C (control value class) (Alternaia brassicicola): L (L shows 50% or less of control values)

CCCCn1c(-c2c(F)cccc2F)c(-c2cc(OC)ccc2Cl)cc(Br)c1=O [Compound 396]
Test E (control value class) (Puccinia recondita): L (L shows 50% or less of control values)
Test D (control value class) [1]: L (L shows 50% or less of control values)
Test G (control value class) (Plasmopara viticola): L (L shows 50% or less of control values)
Test B (control value class) (Botrytis cinerea): L (L shows 50% or less of control values)
Test C (control value class) (Alternaia brassicicola): L (L shows 50% or less of control values)

CCn1c(-c2c(F)cccc2F)c(-c2c(F)cccc2Cl)cc(Cl)c1=O [Compound 397]
Test E (control value class) (Puccinia recondita): H (H shows more than 50% of control values)
Test D (control value class) [1]: H (H shows more than 50% of control values)
Test G (control value class) (Plasmopara viticola): H (H shows more than 50% of control values)
Test B (control value class) (Botrytis cinerea): H (H shows more than 50% of control values)
Test C (control value class) (Alternaia brassicicola): H (H shows more than 50% of control values)

Cn1c(-c2c(F)cccc2F)c(-c2c(F)cccc2Cl)ccc1=O [Compound 398]
Test E (control value class) (Puccinia recondita): H (H shows more than 50% of control values)
Test D (control value class) [1]: H (H shows more than 50% of control values)
Test G (control value class) (Plasmopara viticola): H (H shows more than 50% of control values)
Test B (control value class) (Botrytis cinerea): H (H shows more than 50% of control values)
Test C (control value class) (Alternaia brassicicola): H (H shows more than 50% of control values)

CCCn1c(-c2c(F)cccc2F)c(-c2cc(OC)ccc2Cl)ccc1=O [Compound 399]
Test E (control value class) (Puccinia recondita): H (H shows more than 50% of control values)
Test D (control value class) [1]: H (H shows more than 50% of control values)
Test G (control value class) (Plasmopara viticola): H (H shows more than 50% of control values)
Test B (control value class) (Botrytis cinerea): H (H shows more than 50% of control values)
Test C (control value class) (Alternaia brassicicola): H (H shows more than 50% of control values)

CCCn1c(-c2c(F)cccc2F)c(-c2cc(OC)ccc2Cl)cc(Cl)c1=O [Compound 400]
Test E (control value class) (Puccinia recondita): H (H shows more than 50% of control values)
Test D (control value class) [1]: H (H shows more than 50% of control values)
Test G (control value class) (Plasmopara viticola): H (H shows more than 50% of control values)
Test B (control value class) (Botrytis cinerea): H (H shows more than 50% of control values)
Test C (control value class) (Alternaia brassicicola): H (H shows more than 50% of control values)

CCCn1c(-c2c(F)cccc2F)c(-c2cc(OC)ccc2Cl)cc(Br)c1=O [Compound 401]
Test E (control value class) (Puccinia recondita): H (H shows more than 50% of control values)
Test D (control value class) [1]: H (H shows more than 50% of control values)
Test G (control value class) (Plasmopara viticola): L (L shows 50% or less of control values)
Test B (control value class) (Botrytis cinerea): H (H shows more than 50% of control values)
Test C (control value class) (Alternaia brassicicola): H (H shows more than 50% of control values)
